Assay results published in the supplement of paper PMC12355420.
Where a name gives a salt, the structure may show the parent alone. The list shows a part of the results. Cut-off read from the data, not from the text of the source: active = 0.5 or less and inactive = the rest. Single values are uncertain, as repeats are few or missing.

How the values were obtained:
Conditions in all cases: 50 µM; 24 h
[1] = test system: HeLa VPS33A reporter cells; test: relative cell viability (CellMask signal) vs DMSO (fraction of DMSO); higher = less cytotoxic;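 note: primary screen of an FDA-approved drug library in HeLa reporter cells in 96-well format, CellMask signal normalized to DMSO-treated wells set as 1, under 0.5 deemed highly cytotoxic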
[2] = test system: HeLa VPS33A R498W KI + HA-SDC1-FLAG; test: relative GAG core protein HA-SDC1 amount per cell number vs DMSO (fraction of DMSO); higher = more SDC1 (GAG core protein);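 note: HA-SDC1 level read out by In-Cell Western staining with an anti-HA antibody against the N-terminal tag, screening FDA-approved library drugs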
[3] = test system: HeLa VPS33A KO + NLuc-VPS33A R498W; test: relative mutant VPS33A R498W amount (NanoLuc luminescence) vs DMSO (fraction of DMSO); HeLa model of a glycosaminoglycan (GAG) storage disease; KI is knock-in and KO knock-out; SDC1 is syndecan 1; higher = higher mutant VPS33A level;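 note: screen of an FDA-approved drug library, NanoLuc luminescence read after lysing the treated cells, taken as a measure of mutant VPS33A protein stability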

Row | Structure (SMILES) | relative cell viability [1] | relative GAG core protein HA-SDC1 amount per cell number [2] | relative mutant VPS33A R498W amount [3]
1 | O=C(O)c1cc(-c2ccccc2)nc2ccccc12 [Cinchophen] | 1.07 | inactive: 0.947 | 1.21
2 | CC(C)(C)C(=O)OCOP(=O)(COCCn1cnc2c(N)ncnc21)OCOC(=O)C(C)(C)C [Adefovir Dipivoxil] | 1.1 | inactive: 0.59 | 1.68
3 | [O-][n+]1cccc(CO)c1 [Mepiroxol] | 1.14 | inactive: 1.11 | 0.844
4 | CN(C)c1nc(N(C)C)nc(N(C)C)n1 [Altretamine] | 1.3 | inactive: 1.56 | 1.31
5 | O=C(O)c1cc(-c2ccc(F)cc2F)ccc1O [Diflunisal] | 1.14 | inactive: 0.639 | 0.506
6 | CO/N=C(\C(=O)N[C@@H]1C(=O)N2C(C(=O)O)=C(COC(C)=O)CS[C@H]12)c1csc(N)n1 [Cefotaxime (sodium salt)] | 0.978 | inactive: 0.857 | 1.64
7 | OB1OCc2cc(F)ccc21 | 1.04 | inactive: 0.773 | 0.673
8 | Clc1ccc(C(c2ccccc2Cl)C(Cl)Cl)cc1 (centres undefined) [Mitotane (Lsodren)] | 1.04 | inactive: 1.2 | 0.773
9 | OC(CCN1CCCCC1)(c1ccccc1)c1ccccc1 [Pridinol Methanesulfonate] | 1.08 | inactive: 1.13 | 0.791
10 | C[C@H]1C[C@H]2[C@@H]3CCC4=CC(=O)C=C[C@]4(C)[C@@]3(F)[C@@H](O)C[C@]2(C)[C@@]1(O)C(=O)CO [Betamethasone] | 0.991 | inactive: 1.07 | 1.1
11 | Cc1cccn2c(=O)c(-c3nnn[nH]3)cnc12 [Pemirolast potassium] | 1.13 | inactive: 1.77 | 1.02
12 | CCN[C@@H]1C[C@H](N)[C@@H](O[C@H]2OC(CN)=CC[C@H]2N)[C@H](O)[C@H]1O[C@H]1OC[C@](C)(O)[C@H](NC)[C@H]1O [Netilmicin Sulfate] | 0.89 | inactive: 1.03 | 0.696
13 | NC[C@H]1O[C@H](O[C@H]2[C@H](O[C@@H]3O[C@H](CO)[C@@H](O)[C@H]3O)[C@@H](O)[C@H](N)C[C@@H]2N)[C@H](N)[C@@H](O)[C@@H]1O [Ribostamycin Sulfate] | 0.947 | inactive: 0.975 | 0.835
14 | C[C@H](NC(=O)Cc1cc(F)cc(F)c1)C(=O)N[C@H](C(=O)OC(C)(C)C)c1ccccc1 | 1.23 | inactive: 1.18 | 0.914
15 | C=C1CC[C@@H]2[C@](C)(CO)[C@H](O)CC[C@@]2(C)[C@H]1C/C=C1\C=COC1=O [Dehydroandrographolide] | 0.953 | inactive: 0.731 | 0.912
16 | O=C(O)[C@@H]1C[C@@H](O)CN1 [L-Hydroxyproline] | 0.969 | inactive: 1.03 | 1.02
17 | CCCN[C@H]1CCc2nc(N)sc2C1 [Pramipexole dihydrochloride] | 0.997 | inactive: 1.32 | 1.45
18 | C[C@@H]1CC(=O)NN=C1c1ccc(NN=C(C#N)C#N)cc1 [Levosimendan] | 0.836 | active: 0.209 | 1.33
19 | CCc1cc(C(N)=S)ccn1 [Ethionamide] | 1.14 | inactive: 1.13 | 0.48
20 | COC(c1ccccc1)(c1ccccc1)[C@H](Oc1nc(C)cc(C)n1)C(=O)O [Ambrisentan] | 0.912 | inactive: 0.846 | 1.12

Row | Structure (SMILES) | relative cell viability [1] | relative GAG core protein HA-SDC1 amount per cell number [2] | relative mutant VPS33A R498W amount [3]
21 | Cc1cc(=O)oc2cc(O)ccc12 [4-Methylumbelliferone (4-MU)] | 1.07 | inactive: 0.946 | 0.675
22 | Cn1cnc2c(F)c(Nc3ccc(Br)cc3Cl)c(C(=O)NOCCO)cc21 [AZD6244 (Selumetinib)] | 1.4 | inactive: 1.24 | 0.97
23 | C[C@@H](O)[C@H]1C(=O)N2C(C(=O)O)=C(S[C@@H]3CN[C@H](CNS(N)(=O)=O)C3)[C@H](C)[C@H]12 [Doripenem] | 1.33 | inactive: 1.07 | 1.1
24 | N=c1nc(N2CCCCC2)cc(N)n1O [Minoxidil] | 1.19 | inactive: 0.988 | 1.02
25 | Cc1oncc1C(=O)Nc1ccc(C(F)(F)F)cc1 [Leflunomide] | 1.2 | inactive: 1.21 | 0.774
26 | CC(C)c1ccc2oc3nc(N)c(C(=O)O)cc3c(=O)c2c1 [Amlexanox] | 1.08 | inactive: 0.767 | 0.931
27 | O=C(c1ccc(F)cc1)C1CCN(CCn2c(=O)[nH]c3ccccc3c2=O)CC1 [Ketanserin] | 1.07 | inactive: 0.924 | 1.2
28 | Cc1c(C)c2c(c(C)c1O)CC[C@@](C)(CCC[C@H](C)CCC[C@H](C)CCCC(C)C)O2 [alpha-tocopherol] | 0.968 | inactive: 1.06 | 1.15
29 | O=C(Nc1ccccc1)c1ccccc1O [Salicylanilide] | 0.928 | inactive: 0.551 | 0.522
30 | C[C@@H]1C(=O)O[C@H]2C[C@@]34[C@H]5C[C@@H](C(C)(C)C)[C@]36[C@@H](OC(=O)[C@@H]6O)O[C@@]4(C(=O)O5)[C@]21O [Ginkgolide A] | 1.05 | inactive: 0.844 | 1.37
31 | O=C(CCCCCCC(=O)Nc1ccccc1)NO [Vorinostat (SAHA, MK0683)] | 0.752 | inactive: 0.704 | 6.58
32 | Cc1ccc(S(=O)(=O)NC(=O)NN2CC3CCCC3C2)cc1 (centres undefined) [Gliclazide] | 0.927 | active: 0.402 | 0.874
33 | CC[C@@]1(O)C(=O)OCc2c1cc1n(c2=O)Cc2cc3c(CN(C)C)c(O)ccc3nc2-1 [Topotecan] | 1.03 | inactive: 0.587 | 0.719
34 | CCCCC(=O)O[C@]1(C(=O)CO)[C@@H](C)C[C@H]2[C@@H]3CCC4=CC(=O)C=C[C@]4(C)[C@@]3(F)[C@@H](O)C[C@@]21C [Betamethasone Valerate] | 1.37 | inactive: 1.63 | 0.544
35 | NS(=O)(=O)c1cc(Cl)c(Cl)c(S(N)(=O)=O)c1 [Dichlorphenamide] | 1.45 | inactive: 1.05 | 1.1
36 | NC(=O)[C@@H]1CC[C@@H]2CN1C(=O)N2OS(=O)(=O)O [Avibactam sodium] | 1.07 | inactive: 0.865 | 1.37
37 | C=Cc1c(C)c2cc3[nH]c(cc4nc(cc5nc(cc1[nH]2)C(C)=C5CCC(=O)O)C(CCC(=O)O)=C4C)c(C)c3C=C [Protoporphyrin IX] | 1.63 | active: 0.353 | 0.284
38 | COc1cc2nccc(Oc3ccc(NC(=O)NC4CC4)c(Cl)c3)c2cc1C(N)=O [Lenvatinib (E7080)] | 1.12 | inactive: 1.31 | 0.357
39 | NC(=O)c1cn(Cc2c(F)cccc2F)nn1 [Rufinamide] | 1.02 | inactive: 0.791 | 1.16
40 | CCCN(CCC)CCc1cccc2c1CC(=O)N2 [Ropinirole HCl] | 0.987 | inactive: 0.806 | 1.06

Row | Structure (SMILES) | relative cell viability [1] | relative GAG core protein HA-SDC1 amount per cell number [2] | relative mutant VPS33A R498W amount [3]
41 | COc1ccc(-c2ccc3cc(C(=O)O)ccc3c2)cc1C12CC3CC(CC(C3)C1)C2 [Adapalene sodium salt] | 1.51 | inactive: 1.42 | 0.78
42 | CC1(C)S[C@@H]2[C@H](NC(=O)Cc3ccccc3)C(=O)N2[C@H]1C(=O)O [Penicillin G Sodium] | 1.11 | inactive: 1.15 | 1.2
43 | COc1nc2ccc(Br)cc2cc1[C@@H](c1ccccc1)[C@@](O)(CCN(C)C)c1cccc2ccccc12 [Bedaquiline fumarate] | 1.03 | active: 0.378 | 1.18
44 | NC(=O)c1ccc(I)c([N+](=O)[O-])c1 [Iniparib (BSI-201)] | 0.728 | active: 0.317 | 1.03
45 | Cc1occc(=O)c1O [3-Hydroxy-2-methyl-4H-pyran-4-one] | 1 | inactive: 0.892 | 1.36
46 | O=C(O)C[C@H](O)C[C@H](O)/C=C/c1c(C2CC2)nc2ccccc2c1-c1ccc(F)cc1 [Pitavastatin] | 1.32 | inactive: 0.738 | 1.71
47 | C[C@H](CCC(=O)O)[C@H]1CC[C@H]2[C@@H]3[C@H](O)C[C@@H]4C[C@H](O)CC[C@]4(C)[C@H]3C[C@H](O)[C@]12C [Cholic acid] | 1.02 | inactive: 0.818 | 1.3
48 | Cc1nccn1CC1CCc2c(c3ccccc3n2C)C1=O (centres undefined) [Ondansetron] | 0.95 | inactive: 0.953 | 1.14
49 | CC(=O)/N=c1/sc(S(N)(=O)=O)nn1C [Methazolamide] | 0.956 | inactive: 1.23 | 1.13
50 | CC(=O)CC(c1ccccc1)c1c(O)c2ccccc2oc1=O (centres undefined) [Warfarin] | 1.01 | inactive: 0.832 | 1.31
51 | COc1cc(Nc2nc3ccccc3nc2NS(=O)(=O)c2ccc(NC(=O)c3ccc(C)c(OC)c3)cc2)cc(OC)c1 | 0.92 | inactive: 0.693 | 1.16
52 | NCCc1ccc(O)c(O)c1 [Dopamine HCl] | 1.05 | inactive: 0.983 | 1.45
53 | CC(C)(O)CNc1nc(Nc2ccnc(C(F)(F)F)c2)nc(-c2cccc(C(F)(F)F)n2)n1 [AG-221 (Enasidenib)] | 1.15 | inactive: 0.88 | 1.46
54 | CCOc1cc(CC(=O)N[C@@H](CC(C)C)c2ccccc2N2CCCCC2)ccc1C(=O)O [Repaglinide] | 0.987 | active: 0.465 | 0.338
55 | C=CCc1ccc(O)c(OC)c1 [Eugenol] | 1.04 | inactive: 0.923 | 1.11
56 | Cc1[nH]cnc1CN1CCc2c(c3ccccc3n2C)C1=O [Alosetron Hydrochloride] | 1.16 | inactive: 1.28 | 0.892
57 | CCCCCCCCCCCC(=O)O [Lauric Acid] | 1.09 | inactive: 0.933 | 1.58
58 | COc1cc2c(cc1OC)CN(CCc1ccc(NC(=O)c3cccc4c(=O)c5cccc(OC)c5[nH]c34)cc1)CC2 [Elacridar] | 1.02 | inactive: 1.19 | 0.81
